# Test results from a collection of fitness landscapes (doi:10.1126/science.1257360).
# Some of the results follow.
# B1: PhoQ; a variant is named by its letters at X, in order, P23837 (parent)
# chain: MKKLLRLFFPLSLRVRFLLATAAVVLVLSLAYGMVALIGYSVSFDKTTFRLLRGESNLFYTLAKWENNKLHVELPENIDKQSPTMTLIYDENGQLLWAQRDVPWLMKMIQPDWLKSNGFHEIEADVNDTSLLLSGDHSIQQQLQEVREDDDDAEMTHSVAVNVYPATSRMPKLTIVVVDTIPVELKSSYMVWSWFIYVLSANLLLVIPLLWVAAWWSLRPIEALAKEVRELEEHNRELLNPATTRELTSLVRNLNRLLKSERERYDKYRTTLTDLTHSLKTPLXXLQXXLRSLRSEKMSVSDAEPVMLEQISRISQQIGYYLHRASMRGGTLLSRELHPVAPLLDNLTSALNKVYQRKGVNISLDISPEISFVGEQNDFVEVMGNVLDNACKYCLEFVEISARQTDEHLYIVVEDDGPGIPLSKREVIFDRGQRVDTLRPGQGVGLAVAREITEQYEGKIVAGESMLGGARMEVIFGRQHSAPKDE
# Variants of: B1
# Test: enrichment ratio after two sorts for PhoP signalling (ratio (wild type AVST 3.29)); higher = more functional
# Details: with PhoP (E. coli)
row,Variant,enrichment ratio
1,RHMD,≤ 0.25
2,YAMS,≤ 0.25
3,DKLV,≤ 0.25
4,YNAD,≤ 0.25
5,DRME,≤ 0.25
6,RDSG,≤ 0.25
7,WEHI,≤ 0.25
8,VGKV,≤ 0.25
9,SKKL,≤ 0.25
10,TNQA,8.91
11,HYKD,≤ 0.25
12,QCHI,≤ 0.25
13,THCF,17.5
14,QFFC,≤ 0.25
15,DTAW,≤ 0.25
16,PKHS,≤ 0.25
17,WAYD,≤ 0.25
18,HNLI,≤ 0.25
19,IKIY,≤ 0.25
20,GHFA,≤ 0.25
21,IWEP,≤ 0.25
22,MTEH,≤ 0.25
23,FSKR,≤ 0.25
24,RMSV,≤ 0.25
25,VHHV,≤ 0.25

row,Variant,enrichment ratio
1,SGVK,≤ 0.25
2,IELE,≤ 0.25
3,AGHS,≤ 0.25
4,VLVW,≤ 0.25
5,HEEI,≤ 0.25
6,SRPM,≤ 0.25
7,RCRR,≤ 0.25
8,TRYC,≤ 0.25
9,DRNN,≤ 0.25
10,FRHG,≤ 0.25
11,RMVW,≤ 0.25
12,FKCD,≤ 0.25
13,WWTW,≤ 0.25
14,LRLN,≤ 0.25
15,HQHH,≤ 0.25
16,FPII,≤ 0.25
17,LARW,≤ 0.25
18,MLSF,0.952
19,RPYH,≤ 0.25
20,HRMH,≤ 0.25
21,FFAY,≤ 0.25
22,SGNI,2.01
23,HGKT,≤ 0.25
24,NKND,≤ 0.25
25,RSYD,≤ 0.25

row,Variant,enrichment ratio
1,QRMR,≤ 0.25
2,MSAM,10.5
3,YLNA,≤ 0.25
4,RTHI,≤ 0.25
5,FDEA,≤ 0.25
6,LCAY,2.56
7,EQQG,≤ 0.25
8,KRHN,≤ 0.25
9,NHGY,≤ 0.25
10,ISIL,≤ 0.25
11,EMPR,≤ 0.25
12,ETAT,≤ 0.25
13,PARL,≤ 0.25
14,WATN,≤ 0.25
15,MERC,≤ 0.25
16,EFRF,≤ 0.25
17,DHMR,≤ 0.25
18,LTVT,≤ 0.25
19,GKSV,≤ 0.25
20,CFSV,≤ 0.25
21,HYTE,≤ 0.25
22,AMNQ,≤ 0.25
23,MTGI,11.7
24,FNGH,≤ 0.25
25,LCDA,≤ 0.25

row,Variant,enrichment ratio
1,AQST,5.3
2,MFLG,0.27
3,QAWH,31.4
4,WRNG,≤ 0.25
5,MHPA,≤ 0.25
6,NWCW,≤ 0.25
7,QVAR,≤ 0.25
8,HRYT,≤ 0.25
9,PGSF,≤ 0.25
10,RAGG,≤ 0.25
11,TGSC,20.2
12,ARDQ,≤ 0.25
13,YKPC,≤ 0.25
14,KYLY,≤ 0.25
15,KIPE,≤ 0.25
16,EITW,≤ 0.25
17,SVTE,≤ 0.25
18,PKMG,≤ 0.25
19,WPRE,≤ 0.25
20,IPQH,≤ 0.25
21,RCQG,≤ 0.25
22,YVVH,≤ 0.25
23,NVYK,≤ 0.25
24,EHQV,≤ 0.25
25,AKND,≤ 0.25

row,Variant,enrichment ratio
1,KYYA,≤ 0.25
2,RFHT,≤ 0.25
3,RYLQ,≤ 0.25
4,YQYY,≤ 0.25
5,ISKD,≤ 0.25
6,GELI,8.82
7,IASV,≤ 0.25
8,RQCF,≤ 0.25
9,WTWV,≤ 0.25
10,ADYF,≤ 0.25
11,KAMY,≤ 0.25
12,KKLE,≤ 0.25
13,GVFN,≤ 0.25
14,PTAI,≤ 0.25
15,GGPN,≤ 0.25
16,RIAL,≤ 0.25
17,SRDW,≤ 0.25
18,DFAT,≤ 0.25
19,QCGH,24.2
20,RTWE,≤ 0.25
21,VPCK,≤ 0.25
22,HNII,≤ 0.25
23,WDVL,≤ 0.25
24,NQME,≤ 0.25
25,LVWV,≤ 0.25

row,Variant,enrichment ratio
1,RGAY,≤ 0.25
2,GHQR,≤ 0.25
3,QCVM,0.317
4,PDLL,≤ 0.25
5,KFAA,≤ 0.25
6,LNMR,≤ 0.25
7,WPYT,≤ 0.25
8,IYEV,≤ 0.25
9,SPIH,≤ 0.25
10,FAPL,≤ 0.25
11,VILF,≤ 0.25
12,GGVP,≤ 0.25
13,MCHL,6.12
14,ESRE,≤ 0.25
15,DRYV,≤ 0.25
16,TSFK,≤ 0.25
17,HMFH,≤ 0.25
18,IYGA,≤ 0.25
19,HKMK,≤ 0.25
20,YTRM,≤ 0.25
21,PRKQ,≤ 0.25
22,VMLQ,≤ 0.25
23,LCMR,≤ 0.25
24,RPDF,≤ 0.25
25,INCL,1.56

row,Variant,enrichment ratio
1,YCSP,≤ 0.25
2,TGFR,≤ 0.25
3,WLHN,≤ 0.25
4,DGGH,≤ 0.25
5,IDEH,≤ 0.25
6,WFQE,≤ 0.25
7,KANE,≤ 0.25
8,GSFE,≤ 0.25
9,SETD,≤ 0.25
10,ETYW,≤ 0.25
11,IRPW,≤ 0.25
12,MWFW,≤ 0.25
13,GKRS,≤ 0.25
14,LWLD,≤ 0.25
15,SLSM,8.94
16,PMLI,≤ 0.25
17,EVQT,≤ 0.25
18,LVQQ,≤ 0.25
19,MTVL,1.12
20,DGQW,≤ 0.25
21,GFKW,≤ 0.25
22,DIHS,≤ 0.25
23,SMQE,≤ 0.25
24,HWFS,≤ 0.25
25,WAYL,≤ 0.25

row,Variant,enrichment ratio
1,SRGE,≤ 0.25
2,LYCC,≤ 0.25
3,MDGN,≤ 0.25
4,LQLD,≤ 0.25
5,EEVY,≤ 0.25
6,GQLQ,5.21
7,HGHQ,≤ 0.25
8,HAKI,≤ 0.25
9,EPSN,≤ 0.25
10,HRYR,≤ 0.25
11,VCMQ,≤ 0.25
12,VLNN,≤ 0.25
13,DCVD,≤ 0.25
14,NHCE,≤ 0.25
15,LMAY,≤ 0.25
16,FPDR,≤ 0.25
17,IYAH,≤ 0.25
18,YFDT,≤ 0.25
19,TCWM,≤ 0.25
20,ICWY,≤ 0.25
